Assay results reported in PubChem BioAssay AID485344 (National Center for Advancing Translational Sciences (NCATS), 2010).
Screen size: about 340,000 compounds; about 6,900 (2%) were called active. Cut-off read from the data, not from the text of the source: active = inhibition above about 30%; inactive = below that, where a call was filed. The list shows a part of the results, in another mix than the full data. Entries without a call were filed so in the source.

These molecules were tested against D(2) dopamine receptor (Homo sapiens) (UniProt P14416) (assay: HTS Assay for Allosteric Antagonists of the Human D2 Dopamine Receptor: Primary Screen for Antagonists). Conditions: HEK293 TREx D2 cells, calcium flux, dopamine EC80; at 10 µM; stronger effect = higher value.
UniProt P14416, sequence (P14416 whole entry, looked up): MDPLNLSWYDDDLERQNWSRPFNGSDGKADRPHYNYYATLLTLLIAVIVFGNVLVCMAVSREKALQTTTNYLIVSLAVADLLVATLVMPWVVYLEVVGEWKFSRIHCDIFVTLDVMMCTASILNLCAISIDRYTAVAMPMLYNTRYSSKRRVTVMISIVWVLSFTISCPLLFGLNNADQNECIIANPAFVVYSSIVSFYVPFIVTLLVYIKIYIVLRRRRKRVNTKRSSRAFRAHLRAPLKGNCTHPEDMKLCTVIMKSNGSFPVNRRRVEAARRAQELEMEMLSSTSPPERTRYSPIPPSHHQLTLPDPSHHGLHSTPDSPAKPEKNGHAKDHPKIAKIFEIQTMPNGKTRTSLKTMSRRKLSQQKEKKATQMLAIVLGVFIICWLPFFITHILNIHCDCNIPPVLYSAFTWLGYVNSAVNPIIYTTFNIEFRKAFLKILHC
Outline: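 In this primary screen, negative modulation is detected by tracking calcium flux after an EC80 dopamine challenge in inducible HEK293 T-REx D2 cells preexposed to test compound for 180 s.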
Note: 0% is about no effect.

Compound	inhibition
COc1ccccc1CNc1ncnc2onc(-c3ccc(Cl)cc3)c12	1.38%
CN(c1nnc(NC(=O)Nc2ccc(Br)cc2)s1)C1CCCCC1	14.4%
Cc1ccc(NC(=O)Nc2csc3c2CCCC3)c(C)c1	3.54%
CNC(=O)C1CCC(Cn2c(=O)c3sccc3n(CC(=O)Nc3ccc(C)cc3C)c2=O)CC1 (stereo unspecified)	6.18%
Cc1cccc(NC(=O)CSc2nc(=O)n(CCN3CCOCC3)c3c2CCC3)c1	14.4%
O=C(NC1CCN(Cc2ccccc2)CC1)C(NS(=O)(=O)c1cccc2nsnc12)c1ccccc1 (stereo unspecified)	active: 34.5%
O=C(CN1C(=O)COc2ccc(S(=O)(=O)NC3CCCC3)cc21)Nc1ccc(F)c(Cl)c1	7.79%
O=C(NCCn1cc(SCc2ccc(C(F)(F)F)cc2)c2ccccc21)c1cccs1	23.7%
COc1ccc(-n2nc3c(N4CCCC(C(=O)NCc5ccccc5C)C4)nnc(C)c3c2C)cc1 (stereo unspecified)	-23.2%
CC(=O)c1cccc(NC(=O)c2ccc3ccccc3c2)c1	active: 31.4%
CSc1ccc(CCNC(=O)c2ccc3c(c2)nc2n3CCC(C)C2)cc1 (stereo unspecified)	6.68%
CCOCCc1nn2c(=O)cc(COC(=O)c3ccccc3NC(=O)c3cccs3)nc2s1	2.72%
CCc1ccccc1NC(=O)N1CC(CC)Oc2ccc(Cl)cc21 (stereo unspecified)	-12.1%
O=C(NC1CC(=O)N(c2ccccc2)C1)c1cccs1 (stereo unspecified)	-11.8%
Cc1cccc(N2CCN(C(=O)CCNS(=O)(=O)c3ccc4c(c3)CCN4C(=O)C3CC3)CC2C)c1 (stereo unspecified)	9.96%
Cc1cccc(C(=O)Nc2nc3c(s2)CCCC3)c1	9.56%
CCOC(=O)N1CCc2c(sc3c2c(=O)n(CCc2ccccc2)c(=O)n3Cc2ccc(C)cc2C)C1	-14.8%
c1ccc(CNc2ncnc3[nH]ncc23)cc1	7.43%
COc1ccc(-c2nc(CCNC(=O)Cc3ccc(F)cc3)cs2)cc1	12.9%
Cc1ccc(CN(Cc2ccco2)C(=O)c2ccccc2Cl)o1	0.226%
CC(=O)c1ccc(NC(=O)c2cn(C)c(=O)c3ccccc23)cc1	-12%
O=C(C1CCCN(S(=O)(=O)c2cccs2)C1)N1CCN(c2ccccc2F)CC1 (stereo unspecified)	-25.9%
CN1C(=O)c2ccccc2Sc2ccc(NC(=O)NCc3ccccc3Br)cc21	13.6%
Cc1ccc(CN(Cc2cccn2-c2nnc(N3CCCC3=O)s2)C(=O)Nc2cc(C)cc(C)c2)cc1	0.364%

Compound	inhibition
Cc1nc2sc(C)c(C)n2c(=O)c1S(=O)(=O)NCCc1ccc(Cl)cc1	7.13%
COc1ccc(-c2nc3c(c(SCC(=O)Nc4cc(C)cc(C)c4)n2)Cc2c(CO)cnc(C)c2O3)cc1	18.1%
COc1cccc(CN2C(=O)C3(SCC(=O)N3c3ccc(F)cc3)c3ccccc32)c1 (stereo unspecified)	4.74%
Cc1ccc(Cn2c(C)c(CNCc3ccccc3F)c(C(=O)O)c2C)cc1	5.59%
CCc1ccccc1N(C)C(=O)c1cc2c(s1)-c1c(C)cccc1OC2	-2.05%
O=C(C1=C[C@@H](c2coc3ccccc3c2=O)C[C@@H](OCCCCO)O1)N1CCOCC1	active: 62.1%
COC(=O)c1c(NC(=O)CCCOc2cccc(C)c2)sc2c1CCC(C)C2 (stereo unspecified)	-1.63%
O=C(Cn1ncc2c3ccccc3n(Cc3ccccc3)c2c1=O)NCc1ccccc1	-2.58%
CC(C)NS(=O)(=O)c1ccc(OCC(=O)N2CCN(c3cccc(Cl)c3)CC2)cc1	-4.63%
CCOC(=O)c1ccc(N2C(=O)c3n[nH]c(-c4ccco4)c3C2c2cccc(F)c2)cc1 (stereo unspecified)	23.8%
Cc1ccc(NC(=O)CSc2nc3ccc(NC(=O)c4cccc(Cl)c4)cc3s2)c(C)c1	-15.6%
COc1ccccc1C(=O)Nc1ccc(-c2nc3cc(C)cc(C)c3o2)cc1	8.44%
O=C(C1COc2cc(S(=O)(=O)Nc3ccc(Cl)cc3)ccc2O1)N1CCCC1 (stereo unspecified)	19.3%
Cc1cc(=O)nc2c3ccccc3n(C(C)C(=O)Nc3c(F)c(F)c(F)c(F)c3F)n12 (stereo unspecified)	active: 44.9%
CC(C)(C)OC(=O)N1CCC(c2c(C(=O)O)cnn2-c2ccc(F)cc2F)CC1	-5.01%
O=C(CN1C(=O)COc2ccc(S(=O)(=O)N3CCCCCC3)cc21)N1CCN(c2cccc(Cl)c2)CC1	18.8%
CCC(=O)N1CCc2cc(S(=O)(=O)NC(Cc3ccccc3)C(=O)Nc3ccc(Cl)cc3)ccc21 (stereo unspecified)	13%
O=C(CSc1nc(-c2ccccc2)[nH]c1-c1ccc(F)cc1)NC1CCCC1	-10.5%
COc1ccccc1C(=O)N1CCC(c2c[nH]c3ccccc23)(c2c[nH]c3ccccc23)CC1	-0.173%
CC(C)c1ccc(S(=O)(=O)Nc2cc3c(cc2NCc2ccccc2)n(C)c(=O)n3C)cc1	9.12%
COc1ccc(CCNC(=O)c2cc3cccc4c3n2CC(C)S4)c(OC)c1OC (stereo unspecified)	13%
CCCC(=O)Nc1c(C(=O)N2CCN(c3ccccc3)CC2)oc2ccccc12	14.4%
CCc1ccccc1NC(=O)C1=CC(c2ccc3c(c2)OCO3)=NS(=O)(=O)N1C	19.1%
COc1ccccc1C(=O)CC1(O)C(=O)N(CC(N)=O)c2ccccc21 (stereo unspecified)	-3.22%

Compound	inhibition
CC(C)(C)c1ccc(C(=O)Nc2ccc3nc(SCC(=O)N4CCCC4)sc3c2)cc1	-8.22%
CCOc1ccccc1NC(=O)Cn1c(=O)n(Cc2ccco2)c(=O)c2cccnc21	7.87%
COc1ccc(-c2cc(C(=O)Oc3ccc(Cl)cc3)c3ccccc3n2)cc1	3.04%
C=CCC(=O)N(CC)CC1CCCN(CCc2cccc(F)c2)C1 (stereo unspecified)	active: 49.5%
Cc1ccc(Nc2cc(-c3ccccc3)nc3ncnn23)cc1	active: 33.5%
CCCCn1cnc2cc(NC(=O)c3cc(OC)c(OC)c(OC)c3)ccc21	-2.79%
Cc1cc(C)cc(N(CC(=O)Nc2ccc(C(F)(F)F)cc2)S(=O)(=O)c2c(C)[nH]c(=O)[nH]c2=O)c1	1.68%
Cc1ccc(OCCSc2nc3ccccc3n2CCC(=O)O)cc1C	8.33%
CCOc1ccc(NC(=O)NC(CC)Cn2nnc3ccccc3c2=O)cc1 (stereo unspecified)	16.8%
COc1ccc(/C=C(\NC(=O)c2ccccc2)C(=O)NC2CCCCC2)cc1	-2.94%
CCOC(=O)C1(CC2CCCCO2)CCN(Cc2ccc(OC)cc2F)CC1 (stereo unspecified)	active: 60.9%
O=C(CSc1ncc(S(=O)(=O)c2ccc(Br)cc2)c(=O)[nH]1)NCc1ccccc1Cl	3.25%
Cc1nc2ncnn2c(C)c1CCC(=O)NCc1ccc(Cl)cc1	-21%
Cc1cccc(NC(=O)c2nc[nH]c2C(=O)N2CCC(C)CC2)c1	active: 39%
Cc1ccc(NC(=O)Cn2ccn(Cc3ccc(Cl)cc3)c(=O)c2=O)cc1C	-7.33%
CCOC(=O)C1CCN(C(=O)c2ccc3c(c2)sc2nc(-c4ccc(OCC)cc4)cn23)CC1	-6.64%
COc1ccc(-c2nc(SCC(=O)NC3CCCC3)c(-c3ccccc3)[nH]2)cc1OC	9.83%
COc1ccc(OC)c(Nc2cc(C(=O)NCc3ccccc3)c3ccccc3n2)c1	13.9%
CC(=O)c1cccc(-n2c(CCC(=O)O)ccc2-c2ccccc2)c1	5.74%
Cc1ccc(-n2ncc3c(Nc4ccc5c(c4)OCCO5)ncnc32)cc1C	20.1%
COc1ccc(CNC(=O)c2cnn(-c3ccc(C)cc3)c2C2CCN(C(=O)OC(C)(C)C)CC2)cc1	8.56%
COc1cc(Cl)c(C)cc1NC(=O)CSCc1nc(-c2ccc(OC)c(OC)c2)no1	6.23%
Cn1c(NCc2ccccc2F)nc2ccccc21	-0.304%
Cc1cccc(C)c1NC(=O)C1CCN(S(=O)(=O)c2cccc3nsnc23)CC1	-18.1%

Compound	inhibition
Cc1cc(C)cc(OCCOCCn2c(-c3ccc(Cl)cc3)nc3ccccc3c2=O)c1	-1.07%
CCOc1ccc(-n2c(-c3ccc(OC)cc3)cc3c2CC(C)(C)CC3=O)cc1	8.94%
C=Cc1ccc(CSc2nc(-c3ccc(Cl)cc3)nc3c2Cc2c(CO)cnc(C)c2O3)cc1	-11.1%
Cc1ccc(NC(=O)CC2Sc3ccccc3NC2=O)c(C)c1 (stereo unspecified)	-8.91%
CCOC(=O)c1ccc(-c2ccc(/C=C(\C#N)C(=O)Nc3cccc(C)c3)o2)cc1	-7.02%
CCCCN(CCCC)S(=O)(=O)c1ccc(NC(=O)c2c(-c3ccccc3)noc2C)cc1	4.96%
CCN(C(=O)c1cc(S(=O)(=O)N2CCCCC2)c[nH]1)c1ccc(OC)cc1	12%
CCOC(=O)c1cccc(NC(=O)N2Cc3ccccc3Oc3ncccc32)c1	-9.14%
CCn1c(=O)c(=O)n(CC)c2cc(N3CCCCC3)c(NC(=O)c3cccc(OC)c3)cc21	-20.6%
Cc1nc(-c2ccc(F)cc2)c(CC(=O)N2CCN(S(=O)(=O)c3cccc([N+](=O)[O-])c3)CC2)s1	active: 33.8%
COc1ccc(N2CCN(CC(O)COc3ccc(C)c(C)c3)CC2)cc1 (stereo unspecified)	-17.5%
CC(=O)N1c2ccc(S(=O)(=O)NCCc3cccc(C)c3)cc2CC1C (stereo unspecified)	5.85%
CCOc1cccc(NC(=O)CSc2ncc(-c3ccc(Cl)cc3)[nH]2)c1	20.9%
COc1ccc(-n2c(=O)c3c4c(sc3n(Cc3ccccc3)c2=O)CCC4)c(OC)c1	16.9%
CCCCN(C(=O)Cc1cccc(F)c1)c1c(N)n(CCC)c(=O)[nH]c1=O	active: 36.5%
Cc1ccsc1CN1CCN(c2ccccn2)CC1	active: 77.2%
COc1cccc(CN2c3ccccc3-c3nc(SCC(=O)Nc4cccc(C)c4)ncc3S2(=O)=O)c1	-5.24%
COc1ccc(-c2cc(C(F)(F)F)nc(NCc3ccccc3)n2)cc1OC	-0.559%
CC1CCc2c(sc3nnn(CC(=O)Nc4cccc(C(F)(F)F)c4)c(=O)c23)C1 (stereo unspecified)	-14.1%
COc1ccc(CNC(=O)c2cc(-c3ccccc3OC)on2)cc1	active: 91.3%
O=C1C(=O)N(C2CCN(C(=O)c3ccc(F)cc3)CC2)CCN1Cc1ccc(F)cc1	8.32%
CCN1C(C(=O)c2ccccc2)=C(OC(=O)c2ccc(Cl)cc2)c2ccccc2S1(=O)=O	-7.44%
CCc1nnc2c3ccccc3nc(Nc3ccc(F)cc3C)n12	7.43%
CCOc1ccc(Br)cc1C1C(C(=O)Nc2ccccc2OC)=C(C)Nc2nnnn21 (stereo unspecified)	-7.25%
